Test results reported in patent publication US20230399411A1, “SPECIFIC ANTIBODY-DRUG-CONJUGATES (ADCS) WITH KSP INHIBITORS AND ANTI-CD123-ANTIBODIES” (Bayer Pharma Aktiengesellschaft, priority 2016, published 2023).

T1: IL3Ra protein (TPP-5521, IL3Ra aa20-305, CD123) (Homo sapiens, UniProt P26951)
T1 construct: IL3Ra aa20-305; purchased R&D Systems 203-IL
T1 sequence (P26951 20-305): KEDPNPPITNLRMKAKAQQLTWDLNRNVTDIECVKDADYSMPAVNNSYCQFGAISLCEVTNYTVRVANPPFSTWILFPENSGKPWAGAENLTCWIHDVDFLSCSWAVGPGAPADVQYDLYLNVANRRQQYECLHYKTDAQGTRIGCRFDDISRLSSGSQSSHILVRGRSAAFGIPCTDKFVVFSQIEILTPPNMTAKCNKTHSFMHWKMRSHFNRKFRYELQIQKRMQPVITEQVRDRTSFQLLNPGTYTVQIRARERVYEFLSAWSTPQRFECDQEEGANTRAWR

B1: TPP-8988: humanized and germlined variant of anti-CD123 antibody 12F1; heavy chain SEQ ID NO: 139, light chain 140 (antibody)
heavy: EVQLLESGGGLVQPGGSLRLSCAVSDYSITSGYYWNWIRQAPGKKLEWMGYISYDGSNNYNPSLKNGRITISRDTSKNTFYLQMNSLRAEDTAVYYCARGEGFYFDSWGQGTLVTVSS[human IgG1 constant region cut from this listing]
light: EIVLTQSPGTLSLSPGERATLSCKSSQSLFFGSTQKNYLAWYQQKPGQAPRLLIYWASTRESGIPDRFSGSGSGTDFTLTISRLEPEDFAVYYCQQYYNYPWTFGQGTKLEIKRTVAAPSVFIFPPSDEQLKSGTASVVCLLNNFYPREAKVQWKVDNALQSGNSQESVTEQDSKDSTYSLSSTLTLSKADYEKHKVYACEVTHQGLSSPVTKSFNRGEC
modifications: Antibody Sequence
B2: TPP-6013: chimeric anti-CD123 antibody, chimeric variant of 12F1 (antibody)
heavy: QVQLQESGPGLVKPSQSLSLTCSVTDYSITSGYYWNWIRQFPGNKLEWMGYISYDGSNNYNPSLKNRISITRDTSKNQFFLKLSSVTTEDTATYYCSRGEGFYFDSWGQGTTLTVSS[human IgG1 constant region cut from this listing]
light: DIMMSQSPSSLAVSVGEKFTMTCKSSQSLFFGSTQKNYLAWYQQKPGQSPKLLIYWASTRESGVPDRFTGSGSGTDFTLAISSVMPEDLAVYYCQQYYNYPWTFGGGTKLEIKRTVAAPSVFIFPPSDEQLKSGTASVVCLLNNFYPREAKVQWKVDNALQSGNSQESVTEQDSKDSTYSLSSTLTLSKADYEKHKVYACEVTHQGLSSPVTKSFNRGEC
B3: TPP-9075: germlining variant of TPP-8988 (12F1 campaign) (antibody)
heavy: B1 heavy with W35S
light: B1 light
B4: TPP-9129: germlining variant of TPP-8988 (12F1 campaign) (antibody)
heavy: B1 heavy
light: EIVLTQSPGTLSLSPGERATLSCRASQSVSSSYLAWYQQKPGQAPRLLIYWASTRESGIPDRFSGSGSGTDFTLTISRLEPEDFAVYYCQQYYNYPWTFGQGTKLEIKRTVAAPSVFIFPPSDEQLKSGTASVVCLLNNFYPREAKVQWKVDNALQSGNSQESVTEQDSKDSTYSLSSTLTLSKADYEKHKVYACEVTHQGLSSPVTKSFNRGEC
B5: TPP-9130: germlining variant of TPP-8988 (12F1 campaign) (antibody)
heavy: B1 heavy
light: B1 light with W56G, T59S, E61A, S62T
B6: TPP-9104: germlining variant of TPP-8988 (12F1 campaign) (antibody)
heavy: B1 heavy with G32N
light: B1 light
B7: TPP-9078: germlining variant of TPP-8988 (12F1 campaign) (antibody)
heavy: B1 heavy with M49V
light: B1 light

Test system: CD123-positive cells
Test: Co-localisation of the internalised CD123 antibody in the lysosome
Assay type: cell-based
Conditions: CypHer5E-labelled antibody 20 μg/ml, 6 h, 37° C., lysosome stain
Protocol: The toxic active compound of the antibody drug conjugates is released in the lysosome, owing to the linker selected. The transport of the antibody to this organelle is therefore crucial. By co-localisation of the antibody with marker proteins specific for the lysosome (e.g. surface protein or small GTPasen), it is possible to identify antibodies having a suitable profile. To this end, the CD123-positive cells (5×10^4/well) in 100 μl of medium were initially sown into a 96-MTP (Greiner bio-one, CELLSTAR, 650 180, U-bottom). After addition of the CypHer5E-labelled anti-CD123 antibody (final concentration 20 μg/ml), the batches were incubated in duplicate at 37° C. for 6 h. In each case 30 min prior to the end of the incubation time, a lysosome-specific live dye was added to the samples. The lysomes were stained using the CytoPainter LysoGreen indicator reagent (final concentration 1:2000; abeam, ab176826). After incubation, 200 μl of ice-cold FACS buffer (DULBECCO'S PBS, Sigma-Aldrich, No. D8537+3% FBS heat inactivated FBS, Gibco, No. 10500-064) were pipetted into the batch and the cell suspension was centrifuged at 400×g and 4° C. for 5 min. The pellet was then resuspended in 300 μl ice-cold FACS buffer and centrifuged again (4 min, 400×g at 4° C.). […] Co-localisation was evaluated using the specific co-localisation software IDEAS Application v6.1.

Molecule	Co-localisation [%]
B1	41.0%
B2	43.5%

Target: T1, IL3Ra protein (TPP-5521, IL3Ra aa20-305, CD123)
Test: Binding affinity by surface plasmon resonance (Biacore)
Design: species or system murine
Conditions: SPR sensorgram behaviour
Protocol: (§1) The antibodies were furthermore characterized by their binding affinity to soluble IL3Ralpha (obtained from R&D Systems) via BIAcore analysis. To determine the cell binding characteristics of the anti-CD123 antibodies, binding was measured by flow cytometry on CD123-positive cancer cell line MOLM-13.
Surface plasmon resonance experiments for quantitative binding analysis were carried out using a Biacore T200 instrument (GE Healthcare Biacore, Inc.). Here the antibodies to be examined were fixed with the aid of an anti-human Fe antibody (“Human Antibody Capture Kit”, BR-1008-39, GE Healthcare Biacore, Inc.) amine-coupled to the sensor chip surface. Amine coupling was performed according to the manufacturer's instructions using 1-ethyl-3-(3-dimethylaminopropyl)carbodiimide hydrochloride (EDC), N-hydroxysuccinimide (NHS) and ethanolamine HCl pH 8.5 (“Amine Coupling Kit” BR-1000-50, GE Healthcare Biacore, Inc.). For the analyses, Series S sensor chips CM5 (GE Healthcare Biacore, Inc.) were used with the mobile buffer HBS-EP+(10 mM HEPES pH 7.4, 150 mM NaCl, 3 mM EDTA, 0.05% Surfactant P20). All experimental steps were carried out at 25° C. After fixation of the anti-CD123 antibodies to be examined, injections of the extracellular domain of IL3Rα (analyte, R&D Systems) at concentrations of 100 nM were carried out, and after each antigen injection the sensor surface was regenerated with glycine HCl pH 2.0. Prior to another analyte injection, antibodies were in each case fixed as above, under identical conditions. For all measurements, an upstream flow cell only containing immobilized amine-coupled anti-human Fe antibody was used as reference cell. Evaluation of the sensorgrams obtained was, after double referencing (subtraction of the reference flow cell signal and a buffer injection), carried out by a global fit based on a 1:1 Langmuir binding model with the aid of the Biacore T200 evaluation software (GE Healthcare Biacore, Inc.).

Molecule	Multiphasic behaviour
B3	low expression and/or undesirable multiphasic behavior
B4	low expression and/or undesirable multiphasic behavior
B5	low expression and/or undesirable multiphasic behavior
B1	No
B6	low expression and/or undesirable multiphasic behavior
B7	low expression and/or undesirable multiphasic behavior
B2	No

Test system: MOLM-13 cancer cell line (CD123-positive)
Test: Flow cytometry (FACS) binding of anti-CD123 antibodies to cells
Design: species or system human
Conditions: not given
Protocol: as §1
Binding of the anti-CD123 antibodies was examined by flow cytometry using human haematological cell line MOLM-13. To this end, the cells (5×10^5 cells/well) were incubated in FACS buffer (PBS without Ca/Mg, 3% FCS, Biochrom) with 10 μg/ml primary antibody solution (start concentration) on ice for 30-45 min protected from light. A dose activity curve (1:5 dilution) was plotted. After the incubation, 200 μl of ice-cold FACS buffer were added using a pipette, and the cell suspension was centrifuged at 4° C. 400 g for 4 min. The cell pellet was washed with 300 μl of ice-cold FACS buffer and the pellet obtained was then resuspended in 100 μl FACS buffer and incubated again with secondary antibody (monoclonal anti-kappa light chains-FITC antibody, Sigma, No. SAB4700605) in a 1:10 dilution on ice for 30 min. The cells were then washed with ice-cold FACS buffer and adjusted to a cell concentration of 0.5×10^6 cell/ml prior to flow cytometry using a Guava flow cytometer (Millipore). Propidium iodide (final concentration 1 μg/ml) was used for live staining. The results were shown as EC50 values determined based on the dose response curve and efficacy compared to maximal binding.

Molecule	FACS binding, in words
B1	significant improved binding behaviour

Same assay, conditions: FACS binding, start 10 μg/ml, 1:5 dilution

MOLM-13 EC50 [nM]	Molecule
No binding	B4
No binding	B7

Substitutions are numbered along the chain they refer to.
